Laboratory results taken from the supplement of paper PMC4967469.
pIC50: −log10 of the molar value. By IC50 is meant the dose at which the fit gives 50% viability; fits outside the tested doses are given as limits. AUC is the area under the same curve over the 256-fold range up to the top dose, as a fraction; values near 1 show little effect. An inferred top dose is not printed in the source and was worked back from the curve model.

How the values were obtained:
Test in all cases: Viability of human cancer cell lines after 72 h of drug (GDSC screen)
QL-XII-47 = compound: C=CC(=O)N1CCc2ccc(-n3c(=O)ccc4cnc5ccc(-c6cnn(C)c6)cc5c43)cc21 [QL-XII-47]; settings: top dose 10.24 µM; top dose inferred
Protocol: (§1)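 Human cancer cell lines in 384-well plates, medium with 10% serum, drug for 72 h over a 256-fold dose range (nine 2-fold or five 4-fold steps up to the top dose). Adherent lines were fixed and stained with the nucleic acid dye Syto60, suspension lines read with resazurin; signal relative to control wells, capped at 0 and 100%. One two-parameter sigmoid per drug and line, fitted in a mixed model over all curves with the slope shared within a line.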

CCT007093 = compound: O=C1/C(=C/c2cccs2)CC/C1=C\c1cccs1 [CCT007093]; settings: top dose 6.6 µM; top dose inferred
Protocol: as §1

BAY 61-3606 = compound: COc1ccc(-c2cc3nccn3c(Nc3ncccc3C(N)=O)n2)cc1OC [BAY 61-3606]; settings: top dose 8 µM; top dose inferred
Protocol: as §1

KIN001-266 = compound: CCN1CCC(n2cc(CNc3cc(Cl)c4ncc(C#N)c(Nc5ccc(F)c(Cl)c5)c4c3)nn2)CC1 [KIN001-266]; settings: top dose 20 µM; top dose inferred
Protocol: as §1

Row | Cell Line | AUC (QL-XII-47) | pIC50 (QL-XII-47) | AUC (CCT007093) | pIC50 (CCT007093) | AUC (BAY 61-3606) | pIC50 (BAY 61-3606) | AUC (KIN001-266) | pIC50 (KIN001-266)
1 | SW1710 (bladder, adherent) | 0.57 | 6.00 | 0.956 | < 5.18 | 0.699 | 5.73 | 0.855 | 4.78
2 | CAL-29 (bladder, adherent) | 0.904 | < 4.99 | 0.963 | < 5.18 | 0.919 | < 5.10 | 0.854 | 4.75
3 | MOG-G-CCM (glioma, adherent) | 0.81 | 5.18 | 0.983 | < 5.18 | 0.894 | < 5.10 | 0.811 | 4.89
4 | SW900 (lung squamous cell carcinoma, adherent) | 0.863 | < 4.99 | 0.982 | < 5.18 | 0.973 | < 5.10 | 0.938 | < 4.70
5 | NCI-H1155 (large cell lung carcinoma, suspension) | 0.55 | 6.07 | 0.992 | < 5.18 | 0.96 | < 5.10 | 0.896 | 4.77
6 | DMS-53 (small cell lung carcinoma, adherent) | 0.987 | < 4.99 | 0.978 | < 5.18 | 0.987 | < 5.10 | 0.988 | < 4.70
7 | NCI-H2172 (non-small cell lung carcinoma, adherent) | 0.894 | < 4.99 | 0.966 | < 5.18 | 0.982 | < 5.10 | 0.885 | < 4.70
8 | OSC-19 (head and neck, adherent) | 0.806 | 5.26 | 0.976 | < 5.18 | 0.971 | < 5.10 | 0.87 | 4.70
9 | H2818 (mesothelioma, adherent) | 0.951 | < 4.99 | 0.987 | < 5.18 | 0.976 | < 5.10 | 0.987 | < 4.70
10 | NCI-H526 (small cell lung carcinoma, suspension) | 0.983 | < 4.99 | 0.989 | < 5.18 | 0.815 | 5.38 | 0.944 | < 4.70
11 | KELLY (neuroblastoma, adherent) | 0.989 | < 4.99 | 0.982 | < 5.18 | 0.87 | 5.20 | 0.746 | 5.23
12 | EGI-1 (biliary tract, adherent) | 0.725 | 5.46 | 0.981 | < 5.18 | 0.981 | < 5.10 | 0.958 | < 4.70
13 | NCI-H2135 (non-small cell lung carcinoma, adherent) | 0.548 | 6.06 | 0.979 | < 5.18 | 0.858 | 5.20 | 0.838 | 4.89
14 | RC-K8 (B-cell lymphoma, suspension) | 0.866 | 5.14 | 0.988 | < 5.18 | 0.918 | < 5.10 | 0.964 | < 4.70
15 | NCI-H727 (lung carcinoid, adherent) | 0.906 | < 4.99 | 0.951 | < 5.18 | 0.802 | 5.12 | 0.871 | < 4.70
16 | 786-0 (kidney, adherent) | 0.25 | 6.88 | 0.9 | < 5.18 | 0.669 | 5.85 | 0.874 | 4.77
17 | RF-48 (stomach, adherent) | 0.585 | 5.95 | 0.976 | < 5.18 | 0.595 | 6.03 | 0.718 | 5.25
18 | HCE-4 (oesophagus, adherent) | 0.82 | 5.32 | 0.991 | < 5.18 | 0.836 | 5.37 | 0.99 | < 4.70
19 | SNU-C1 (large intestine, suspension) | 0.783 | 5.18 | 0.924 | < 5.18 | 0.978 | < 5.10 | 0.941 | < 4.70
20 | NCI-H3122 (lung adenocarcinoma, adherent) | 0.74 | 5.49 | 0.986 | < 5.18 | 0.711 | 5.70 | 0.904 | < 4.70

Row | Cell Line | AUC (QL-XII-47) | pIC50 (QL-XII-47) | AUC (CCT007093) | pIC50 (CCT007093) | AUC (BAY 61-3606) | pIC50 (BAY 61-3606) | AUC (KIN001-266) | pIC50 (KIN001-266)
21 | SK-N-AS (neuroblastoma, adherent) | 0.424 | 6.42 | 0.968 | < 5.18 | 0.839 | 5.17 | 0.981 | < 4.70
22 | LK-2 (lung squamous cell carcinoma, adherent) | 0.966 | < 4.99 | 0.982 | < 5.18 | 0.925 | < 5.10 | 0.866 | 4.79
23 | Detroit562 (head and neck, adherent) | 0.832 | 5.21 | 0.985 | < 5.18 | 0.792 | 5.46 | 0.943 | < 4.70
24 | SW780 (bladder, adherent) | 0.986 | < 4.99 | 0.971 | < 5.18 | 0.983 | < 5.10 | 0.986 | < 4.70
25 | AM-38 (glioma, semi-adherent) | 0.652 | 5.77 | 0.967 | < 5.18 | 0.888 | < 5.10 | 0.858 | 4.77
26 | OAW-28 (ovary, adherent) | 0.884 | < 4.99 | 0.975 | < 5.18 | 0.919 | < 5.10 | 0.717 | 5.21
27 | OCI-M1 (acute myeloid leukaemia, suspension) | 0.504 | 6.18 | 0.992 | < 5.18 | 0.952 | < 5.10 | 0.905 | 4.81
28 | COLO-829 (melanoma, adherent) | 0.866 | < 4.99 | 0.945 | < 5.18 | 0.979 | < 5.10 | 0.871 | < 4.70
29 | Raji (Burkitt lymphoma, suspension) | 0.559 | 6.04 | 0.976 | < 5.18 | 0.859 | 5.22 | 0.886 | 4.71
30 | SW13 (adrenal gland, adherent) | 0.988 | < 4.99 | 0.982 | < 5.18 | 0.958 | < 5.10 | 0.955 | < 4.70
31 | BEN (non-small cell lung carcinoma, adherent) | 0.919 | < 4.99 | 0.982 | < 5.18 | 0.968 | < 5.10 | 0.873 | < 4.70
32 | HGC-27 (stomach, adherent) | 0.638 | 5.84 | 0.97 | < 5.18 | 0.718 | 5.73 | 0.872 | 4.84
33 | OMC-1 (cervix, adherent) | 0.818 | 5.21 | 0.987 | < 5.18 | 0.966 | < 5.10 | 0.96 | < 4.70
34 | BL-41 (Burkitt lymphoma, suspension) | 0.254 | 6.81 | 0.994 | < 5.18 | 0.696 | 5.82 | 0.834 | 5.05
35 | EBC-1 (lung squamous cell carcinoma, adherent) | 0.703 | 5.59 | 0.979 | < 5.18 | 0.92 | < 5.10 | 0.879 | < 4.70
36 | MDA-MB-361 (breast, adherent) | 0.864 | 5.06 | 0.955 | < 5.18 | 0.813 | 5.37 | 0.957 | < 4.70
37 | HuP-T4 (pancreas, adherent) | 0.484 | 6.24 | 0.967 | < 5.18 | 0.848 | 5.19 | 0.763 | 5.12
38 | HO-1-u-1 (head and neck, adherent) | 0.866 | 5.07 | 0.982 | < 5.18 | 0.793 | 5.46 | 0.904 | < 4.70
39 | KCL-22 (chronic myeloid leukaemia, suspension) | 0.514 | 6.16 | 0.985 | < 5.18 | 0.77 | 5.59 | 0.867 | 4.87
40 | COR-L105 (lung adenocarcinoma, adherent) | 0.491 | 6.22 | 0.915 | < 5.18 | 0.637 | 5.88 | 0.749 | 5.11

Row | Cell Line | AUC (QL-XII-47) | pIC50 (QL-XII-47) | AUC (CCT007093) | pIC50 (CCT007093) | AUC (BAY 61-3606) | pIC50 (BAY 61-3606) | AUC (KIN001-266) | pIC50 (KIN001-266)
41 | COLO-205 (large intestine, suspension) | 0.911 | < 4.99 | 0.975 | < 5.18 | 0.735 | 5.64 | 0.873 | 4.73
42 | NCI-H2052 (mesothelioma, adherent) | 0.914 | < 4.99 | 0.943 | < 5.18 | 0.84 | 5.10 | 0.975 | < 4.70
43 | K2 (melanoma, adherent) | 0.926 | < 4.99 | 0.982 | < 5.18 | 0.9 | < 5.10 | 0.96 | < 4.70
44 | SU-DHL-5 (B-cell lymphoma, suspension) | 0.447 | 6.32 | 0.988 | < 5.18 | 0.41 | 6.52 | 0.901 | 4.84
45 | JHH-7 (liver, adherent) | 0.431 | 6.38 | 0.978 | < 5.18 | 0.778 | 5.52 | 0.876 | 4.75
46 | SK-HEP-1 (liver, adherent) | 0.98 | < 4.99 | 0.989 | < 5.18 | 0.718 | 5.71 | 0.879 | 4.74
47 | OPM-2 (myeloma, suspension) | 0.65 | 5.82 | 0.993 | < 5.18 | 0.856 | 5.33 | 0.85 | 4.95
48 | AsPC-1 (pancreas, adherent) | 0.897 | < 4.99 | 0.946 | < 5.18 | 0.966 | < 5.10 | 0.94 | < 4.70
49 | NCI-H1436 (small cell lung carcinoma, suspension) | 0.775 | 5.33 | 0.985 | < 5.18 | 0.931 | < 5.10 | 0.653 | 5.45
50 | JHH-4 (liver, adherent) | 0.987 | < 4.99 | 0.987 | < 5.18 | 0.894 | < 5.10 | 0.837 | 4.88
51 | GMS-10 (glioma, adherent) | 0.954 | < 4.99 | 0.976 | < 5.18 | 0.965 | < 5.10 | 0.986 | < 4.70
52 | H2461 (mesothelioma, adherent) | 0.86 | < 4.99 | 0.983 | < 5.18 | 0.967 | < 5.10 | 0.981 | < 4.70
53 | YAPC (pancreas, adherent) | 0.905 | < 4.99 | 0.974 | < 5.18 | 0.977 | < 5.10 | 0.893 | < 4.70
54 | ALL-PO (lymphoblastic leukaemia, suspension) | 0.536 | 6.09 | 0.965 | < 5.18 | 0.519 | 6.25 | 0.721 | 5.26
55 | PA-TU-8902 (pancreas, adherent) | 0.644 | 5.76 | 0.973 | < 5.18 | 0.942 | < 5.10 | 0.778 | 5.02
56 | P32-ISH (Burkitt lymphoma, suspension) | 0.53 | 6.12 | 0.993 | < 5.18 | 0.629 | 5.99 | 0.846 | 5.02
57 | NCI-H838 (lung adenocarcinoma, adherent) | 0.975 | < 4.99 | 0.972 | < 5.18 | 0.954 | < 5.10 | 0.937 | < 4.70
58 | SW954 (urogenital system, adherent) | 0.626 | 5.84 | 0.982 | < 5.18 | 0.948 | < 5.10 | 0.825 | 4.91
59 | MDA-MB-468 (breast, adherent) | 0.781 | 5.39 | 0.965 | < 5.18 | 0.987 | < 5.10 | 0.871 | 4.75
60 | ETK-1 (biliary tract, adherent) | 0.573 | 5.98 | 0.949 | < 5.18 | 0.823 | 5.25 | 0.768 | 5.07
